In paper PMC4336329 (PLoS ONE, 2015):
Hit rate of the full screen: of about 310,000 compounds, about 14,000 (4.5%) showed an effect of 50% or more. The effect is printed as a negative number. Some of the results follow.

The compounds below were run against human ether-à-go-go-related gene (hERG) potassium channel (human, UniProt Q12809) (assay: primary screen, population patch clamp on CHO cells stably expressing hERG).
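Note: peak tail current of the secondary pulse compared with the same well before compound.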

human ether-à-go-go-related gene (hERG) potassium channel, sequence (Q12809 whole entry, looked up): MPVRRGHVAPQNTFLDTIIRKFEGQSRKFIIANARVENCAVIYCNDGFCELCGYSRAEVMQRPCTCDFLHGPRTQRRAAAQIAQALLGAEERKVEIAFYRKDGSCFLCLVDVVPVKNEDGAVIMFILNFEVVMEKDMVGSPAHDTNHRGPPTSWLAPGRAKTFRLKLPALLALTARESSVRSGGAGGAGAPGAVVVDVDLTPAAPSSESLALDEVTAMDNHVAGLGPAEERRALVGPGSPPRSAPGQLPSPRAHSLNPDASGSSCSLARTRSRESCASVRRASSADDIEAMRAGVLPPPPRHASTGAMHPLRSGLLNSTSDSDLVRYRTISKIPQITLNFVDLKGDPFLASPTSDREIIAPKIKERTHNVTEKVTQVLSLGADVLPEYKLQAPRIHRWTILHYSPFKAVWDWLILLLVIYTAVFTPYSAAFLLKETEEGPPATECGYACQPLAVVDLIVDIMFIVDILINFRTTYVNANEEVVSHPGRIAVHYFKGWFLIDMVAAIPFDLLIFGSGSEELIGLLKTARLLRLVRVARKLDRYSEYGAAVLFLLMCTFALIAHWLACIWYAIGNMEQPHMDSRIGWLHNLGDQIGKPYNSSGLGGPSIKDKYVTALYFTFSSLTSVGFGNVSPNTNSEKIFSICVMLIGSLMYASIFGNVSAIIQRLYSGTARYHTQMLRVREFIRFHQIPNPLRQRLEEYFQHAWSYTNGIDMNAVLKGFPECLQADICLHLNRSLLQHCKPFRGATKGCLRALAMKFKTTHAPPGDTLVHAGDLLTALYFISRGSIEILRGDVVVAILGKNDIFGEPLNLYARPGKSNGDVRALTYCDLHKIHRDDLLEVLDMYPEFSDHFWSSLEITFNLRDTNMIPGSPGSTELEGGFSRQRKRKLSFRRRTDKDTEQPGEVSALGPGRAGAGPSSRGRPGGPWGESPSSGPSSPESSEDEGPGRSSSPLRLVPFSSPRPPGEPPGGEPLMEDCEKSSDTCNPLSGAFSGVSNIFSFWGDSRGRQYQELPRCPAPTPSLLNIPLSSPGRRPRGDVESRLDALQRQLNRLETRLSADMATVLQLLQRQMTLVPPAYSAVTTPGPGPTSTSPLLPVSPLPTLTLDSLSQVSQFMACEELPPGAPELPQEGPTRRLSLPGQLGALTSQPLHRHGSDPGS

Row | SMILES | hERG current change (%, negative = inhibition) at 10uM [%]
1 | Cc1cc(NC(=O)CC(C)C)c(=O)n(Cc2c(F)cccc2Cl)c1 | -10.9
2 | O=C(Nc1ccccn1)c1ccc(C(=O)Nc2ccccn2)cc1 | 7.84
3 | N/C(=N\OC(=O)c1ccc(Cl)c(Cl)c1)c1cccc(CSc2ccccn2)c1 | 2.93
4 | NC(=S)N/N=C/c1c[nH]c2ccccc12 | -10.9
5 | CCNc1nc(Oc2ccc(=O)n(C)n2)nc(N2CCOCC2)n1 | 13.3
6 | Cc1ccc(-n2ncc3c(=O)n(CC(=O)NC4CCCCC4)cnc32)cc1C | 6.16
7 | CCC(C)NC(=O)c1c(N)n(Cc2ccc3c(c2)OCO3)c2nc3ccccc3nc12 (centres unmarked) | -11.7
8 | Cc1ccc(NC(=O)N2CCC(C(=O)Nc3ccc(C)cc3C)CC2)cc1 | 13.8
9 | C#CC[N+]1(CC#Cc2ccc(C)cc2)CCCCC1.[Br-] | 4.84
10 | Cc1cc(C(=O)N/N=C/c2cc(Br)c(Br)o2)n[nH]1 | 16
11 | N#C/C(=C\c1cc(Cl)cc(Cl)c1O)C(=O)NC1CCCCC1 | -12
12 | Cc1ccc(S(=O)(=O)NN=C2C3CC4CC(C3)CC2C4)cc1 | 2.47
13 | N#Cc1cccn1-c1nccs1 | 6.96
14 | COc1ccc2ccccc2c1CN1CCN(C(=O)c2ccccc2)CC1 | -22.8
15 | CCOc1cc(NC(=S)NCC2CCCO2)c(OCC)cc1NC(=O)C1CC1 (centres unmarked) | 36.2
16 | Cc1ccc(-c2nc(CN(C)C3CCOC3)c(C)o2)s1 (centres unmarked) | 19.7
17 | Cc1cc(C)cc(OCC(=O)N(Cc2ccc(N(C)C)cc2)C2CCS(=O)(=O)C2)c1 (centres unmarked) | -20
18 | O=C(Nc1ccc(C(=O)N2CCCCC2)cc1)C1CCCCC1 | -0.679
19 | O=S(=O)(NCCCCCNS(=O)(=O)c1ccccc1)c1ccccc1 | -2.98
20 | Nc1ccn(-c2ccc(Cl)cc2)c(=O)c1 | 12.8
21 | CCOC(=O)c1c(-c2cccc([N+](=O)[O-])c2)csc1NC(=O)CCCOc1ccccc1 | 13.1
22 | CCOc1ccc(NC(=O)CN(C)C(=O)c2cc(-c3ccncc3)nc3ccccc23)cc1OCC | -58.6

Row | SMILES | hERG current change (%, negative = inhibition) at 10uM [%]
23 | Cc1ccc(NCc2nnc(SCC(=O)O)n2Cc2ccccc2)cc1Cl | 11.4
24 | O=C(Nc1nc(=O)n(C(=O)C2CC2)s1)c1ccccc1 | -0.47
25 | CC(C(=O)c1ccc(-c2ccccc2)cc1)[n+]1ccccc1.[Br-] (centres unmarked) | 2.72
26 | O=c1oc2ccccc2c(Nc2ccccc2)c1CN1CCCCC1 | -57.1
27 | Cc1cc(Cl)ccc1OCC(=O)NC1CCCC1 | -22.2
28 | CCCCCCN=C(C)C1=C(O)C(C(=O)OC)C(C)(C)CC1=O (centres unmarked) | -3.25
29 | O=C1CC(c2ccco2)CC(O)=C1C=NCC1NCCc2ccccc21 (centres unmarked) | -25
30 | O=C1CC(Nc2ccc(N3CCOCC3)cc2)C(=O)N1c1ccccc1 (centres unmarked) | 14.9
31 | CCN(CC)S(=O)(=O)c1cccc(C(=O)NCCc2ccccc2)c1 | -30.6
32 | CCc1cccc(OCCCCNCCOC)c1 | -8.6
33 | O=[N+]([O-])c1ccccc1S(=O)(=O)N1CCCC(C(F)(F)F)C1 (centres unmarked) | 6.11
34 | COc1ccc(N2CCN(C(=O)COC(=O)CCOc3cc(C)ccc3C)CC2)cc1 | 0.516
35 | N#CCn1c(CN2CCCC2)nc2ccccc2c1=O | 10.2
36 | COc1ccc(C2C(C#N)=C(N)Oc3cc(C)[nH]c(=O)c32)c(OC)c1OC (centres unmarked) | 9.03
37 | COc1cccc(N2C(=O)c3cccnc3C2O)c1 (centres unmarked) | 13.9
38 | O=C(O)c1cc(-c2ccc3ccccc3n2)nc2ccccc12 | 5.51
39 | COc1ccc(CNC(=O)C/C(C)=N/NC(=O)C23CC4CC(CC(C4)C2)C3)cc1 | -7.55
40 | CC1N(O)C(c2ccc(Cl)cc2Cl)N(O)C1(C)C (centres unmarked) | 10.8
41 | O=C(COC(=O)CN1C(=O)c2ccccc2C1=O)Nc1cccc(F)c1 | -5.95
42 | COc1ccc(CCNC(=O)c2ccc(CS(=O)Cc3ccc(Cl)cc3)o2)cc1OC (centres unmarked) | -26.7
43 | CC(C)N1CCN(C(=O)c2ccc(OC3CCN(CCc4ccccc4)CC3)cc2)CC1 | -0.0142
44 | CCC(=O)Nc1ccc(NC(=O)/C=C/c2ccc(Cl)cc2)cc1 | 12.5
